From the supplement of paper PMC8183993
Where a name gives a salt, the structure may show the parent alone. ± gives the standard deviation of the averaged measurements. Whole data set: some 3,100 compounds, median “mean cytoplasmic OPP incorporation (global translation) relative to DMSO” near 100, cut for the lowest 2% near 56. Some of the results follow.

Each compound was assayed on U2OS (assay: mean cytoplasmic OPP incorporation (global translation) relative to DMSO (% of DMSO); higher = more protein synthesis). Settings: 10 µM; 24 h.
Procedure: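 Primary image-based screen in U2OS cells: compounds at 10 uM for 24 h, then a 1 h o-propargyl-puromycin (OPP) pulse, click labelling, and high-throughput microscopy. Mean cytoplasmic OPP intensity and nuclei count were normalised to DMSO wells within each plate (DMSO = 100) and averaged over triplicate plates.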

Row | SMILES | mean cytoplasmic OPP incorporation
1 | COc1cc2c(NC3CCN(C(C)C)CC3)nc(C3CCCCC3)nc2cc1OCCCN1CCCC1 | 99.4
2 | CC(Cc1cccc(C(F)(F)F)c1)NCCOC(=O)c1ccccc1 (configuration not stated) [Benfluorex hydrochloride] | 105
3 | CC(=O)S[C@@H]1CC2=CC(=O)CC[C@]2(C)[C@H]2CC[C@@]3(C)[C@@H](CC[C@@]34CCC(=O)O4)[C@H]12 [Spironolactone] | 99.666 ± 0.067
4 | C#Cc1cccc(Nc2ncnc3cc(OC)c(OCCCCCCC(=O)NO)cc23)c1 | 87.3 ± 11
5 | CCCc1cc(C(N)=S)ccn1 [Prothionamide] | 101
6 | CO[C@H]1/C=C/O[C@@]2(C)Oc3c(C)c(O)c4c(O)c(c(/C=N/N5CCN(C6CCCC6)CC5)c(O)c4c3C2=O)NC(=O)/C(C)=C\C=C\[C@H](C)[C@H](O)[C@@H](C)[C@@H](O)[C@@H](C)[C@H](OC(C)=O)[C@@H]1C [Rifapentine] | 115
7 | CC(C)(C)NC[C@@H](O)COc1cccc2c1CCCC2=O [(+) -Levobunolol hydrochloride] | 104
8 | N=C(N)NC(=N)NCCc1ccccc1 [Phenformin hydrochloride] | 99.4 ± 7.9
9 | COC(=O)[C@@H](N)CSC/C=C(\C)CC/C=C(\C)CCC=C(C)C [S-Farnesyl-L-cysteine methyl ester] | 95.9
10 | CN1CCC(=C2c3ccccc3C=Cc3ccccc32)CC1 [Cyproheptadine hydrochloride] | 101 ± 4.8
11 | CNC1CCCN(c2c(F)cc3c(=O)c(C(=O)O)cn(C4CC4)c3c2OC)C1 (configuration not stated) [Balofloxacin] | 101
12 | C[C@H]1O[C@H](O[C@H]2[C@H](O)[C@@H](O)[C@@H](O[C@H]3[C@H](O)[C@@H](O)C(O)O[C@@H]3CO)O[C@@H]2CO)[C@H](O)[C@@H](O)[C@@H]1N[C@H]1C=C(CO)[C@@H](O)[C@H](O)[C@H]1O (some centres not stated) [Acarbose] | 102 ± 2.2
13 | CC(C)(C=O)Cc1cc(C(C)(C)C)c(O)c(C(C)(C)C)c1 | 98.4
14 | Nc1ccc(CC(CC(=O)O)C(=O)O)cc1 [4-Amino-D, L-benzylsuccinic acid] | 104
15 | CCCCN1CCCC1CNC(=O)c1cc(C#N)c2ccccc2c1OC (configuration not stated) [Nafadotride] | 100
16 | CC(=O)Nc1nc(C)c(-c2ccc(Cl)c(S(=O)(=O)NCCO)c2)s1 | 90.6
17 | CN(Cc1ccccc1)C(=O)[C@H](Cc1ccc2ccccc2c1)NC(=O)[C@@H]1CCCN1C(=O)Nc1ccccc1[N+](=O)[O-] | 108
18 | OC[C@H]1O[C@@H](Oc2cc(O)cc(/C=C/c3ccc(O)cc3)c2)[C@H](O)[C@@H](O)[C@@H]1O [Polydatin (Piceid)] | 96.3
19 | O=c1c(O)c(-c2ccc(O)cc2O)oc2cc(O)cc(O)c12 [Morin hydrate (Aurantica)] | 101
20 | CC(/C=C/c1cccc(Oc2ccc(F)cc2)c1)N(O)C(N)=O (configuration not stated) | 93
21 | COc1ccc(C2CNC(=O)C2)cc1OC1CCCC1 (configuration not stated) [Rolipram] | 100 ± 7.2
22 | Nc1c(S(=O)(=O)O)cc(Nc2cccc3ccccc23)c2c1C(=O)c1ccccc1C2=O | 97.9
23 | CCCCC(F)(F)[C@@]1(O)CC[C@H]2[C@@H](CC(=O)[C@@H]2CCCCCCC(=O)O)O1 [Lubiprostone (Amitiza)] | 111
24 | COc1ccc(F)c(F)c1C(=O)c1cnc(NC2CCN(S(C)(=O)=O)CC2)nc1N | 61.4 ± 14

Row | SMILES | mean cytoplasmic OPP incorporation
25 | O=C1OCCN1/N=C/c1ccc([N+](=O)[O-])o1 [Furazolidone] | 78.2
26 | CCOC(=O)[C@H](CCc1ccccc1)N[C@H]1CS[C@H](c2cccs2)CN(CC(=O)O)C1=O [Temocapril HCl] | 101
27 | c1ccc([C@H]2CN3CCSC3=N2)cc1 [Levamisole hydrochloride] | 93.9
28 | c1ccc([C@H]2CN3CCSC3=N2)cc1 [Levamisole HCl] | 107
29 | O=C1C[C@@H](c2ccc(O)cc2)Oc2cc(O)cc(O)c21 [Naringenin] | 107
30 | CCC(=O)O[C@]1(C(=O)CCl)[C@@H](C)C[C@H]2[C@@H]3CCC4=CC(=O)C=C[C@]4(C)[C@@]3(F)[C@@H](O)C[C@@]21C [Clobetasol propionate] | 105 ± 2.9
31 | Cc1ccc([N+](=O)[O-])cc1S(=O)(=O)N(C)C | 94.1
32 | Cc1c(O)c(=O)ccn1C [Deferiprone] | 101
33 | O=S(=O)(O)c1cc(O)ccc1O [Ethamsylate] | 99
34 | CC(=O)O[C@]1(C(C)=O)CC[C@H]2[C@@H]3C[C@H](C)C4=CC(=O)CC[C@]4(C)[C@H]3CC[C@@]21C [Medroxyprogesterone acetate] | 98.4
35 | CC(C)NCC(O)c1ccc2ccccc2c1 (configuration not stated) [Pronethalol hydrochloride] | 99.3 ± 1.2
36 | CCCc1c(OCC(O)COc2ccc3c(=O)cc(C(=O)O)oc3c2CCC)ccc(C(C)=O)c1O (configuration not stated) | 100
37 | COc1cc2c(Oc3ccc4[nH]c(C)cc4c3F)ncnc2cc1OCCCN1CCCC1 [Cediranib (AZD2171)] | 98.1
38 | CNc1cc(OC)c(C(=O)NC2CCN(Cc3ccccc3)C2C)cc1Cl (configuration not stated) [Nemonapride] | 99.3
39 | CN(C)c1nc(N(C)C)nc(N(C)C)n1 [Altretamine] | 98.8
40 | N[C@H](C(=O)O)[C@H](O)c1ccc(O)c(O)c1 [Droxidopa (L-DOPS)] | 99.2
41 | Nc1nc2n[nH]nc2c(=O)[nH]1 [Azaguanine-8] | 60.2
42 | COc1ccccc1OCC(O)CN1CCN(CC(=O)Nc2c(C)cccc2C)CC1 (configuration not stated) [Ranolazine] | 104
43 | O=[N+]([O-])c1cccc2cn[nH]c12 [7-Nitroindazole] | 99.4
44 | COc1cc([C@@H]2c3cc4c(cc3[C@@H](O[C@@H]3O[C@@H]5CO[C@@H](C)O[C@H]5[C@H](O)[C@H]3O)[C@H]3COC(=O)[C@H]23)OCO4)cc(OC)c1O [Etoposide] | 87 ± 14
45 | COc1cc([C@@H]2c3cc4c(cc3[C@@H](O[C@@H]3O[C@@H]5CO[C@@H](C)O[C@H]5[C@H](O)[C@H]3O)[C@H]3COC(=O)[C@H]23)OCO4)cc(OC)c1O [Etoposide (VP-16)] | 84.2
46 | CCCNCC(O)COc1ccccc1C(=O)CCc1ccccc1 (configuration not stated) [Propafenone] | 106
47 | CCCNCC(O)COc1ccccc1C(=O)CCc1ccccc1 (configuration not stated) [Propafenone hydrochloride] | 104
